Earlier results, collected in PMC11006913.
The list shows a part of the results.

Biological target: NKX2-5 K183E (Homo sapiens) (UniProt P52952)
Settings: PBM; conditions not shown; double strand, one strand shown; scale: upbm affinity estimate (log intensity, higher = more binding, comparable within an allelic series)

Sequence of UniProt P52952 (P52952 125-210 K183E): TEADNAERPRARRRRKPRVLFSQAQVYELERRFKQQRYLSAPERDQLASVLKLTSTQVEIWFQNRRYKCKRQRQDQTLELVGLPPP

| Sequence | binding signal |
| --- | --- |
| AAGTACCT [8-mer AAGTACCT] | 11 |
| AGTACTTA [8-mer AGTACTTA] | 11.2 |
| GCACTTCA [8-mer GCACTTCA] | 11.4 |
| CTTCCGTC [8-mer CTTCCGTC] | 10.2 |
| CACTCAAG [8-mer CACTCAAG] | 11.2 |
| ACAGGGTC [8-mer ACAGGGTC] | 10.3 |
| AAGTGGGC [8-mer AAGTGGGC] | 11.5 |
| CAAGTACC [8-mer CAAGTACC] | 11 |
| GTCCGCCA [8-mer GTCCGCCA] | 10.4 |
| AAGGCAGC [8-mer AAGGCAGC] | 10 |
| GGTACTTA [8-mer GGTACTTA] | 11.2 |
| AAGTGGAT [8-mer AAGTGGAT] | 11.6 |
| CGTTCCGC [8-mer CGTTCCGC] | 10.2 |
| CCGATCGC [8-mer CCGATCGC] | 10.2 |
| ACACGGCG [8-mer ACACGGCG] | 10.2 |
| ACCTCCCG [8-mer ACCTCCCG] | 10.2 |
| CCCACTTA [8-mer CCCACTTA] | 12.1 |
| CGGCGTAC [8-mer CGGCGTAC] | 10.3 |
| CGAGGCGC [8-mer CGAGGCGC] | 10.3 |
| CTAAGTGC [8-mer CTAAGTGC] | 11.3 |
| CTGAGGCA [8-mer CTGAGGCA] | 10.4 |
| CGGGTCAG [8-mer CGGGTCAG] | 10.1 |
| CTAAGTAC [8-mer CTAAGTAC] | 10.9 |
| GCTCTTGA [8-mer GCTCTTGA] | 10.8 |
| AAACCGGG [8-mer AAACCGGG] | 10.2 |
| AAGTGGAC [8-mer AAGTGGAC] | 11.3 |
| ACACTTCA [8-mer ACACTTCA] | 11.2 |
| CACTTACC [8-mer CACTTACC] | 11.4 |
